Experimental data as given in PMC5766592.
Results are given in words; binding and its absence hold for the method and conditions named. In cells and extracts the contact can be indirect. Some results given as binding are weak or reduced against the parent protein; the word gives no strength. For some of these results: Where a sequence is shown, tags or fusion partners need not be part of it. One block for each molecule: values may come before it.

Legend:
[1] = target: T1, endogenous cavin-1 of AS-M.5 human angiosarcoma-derived endothelial cells (human (endogenous in AS-M.5)) (UniProt Q6NZI2); assay: co-IP; endogenous proteins; WT and SOCS3-null AS-M.5 cells treated with 50 μM Fsk and 6 μM MG132 for 4 h; IP with anti-cavin-1 antibody and protein G-Sepharose; immunoblot for SOCS3
T1 sequence: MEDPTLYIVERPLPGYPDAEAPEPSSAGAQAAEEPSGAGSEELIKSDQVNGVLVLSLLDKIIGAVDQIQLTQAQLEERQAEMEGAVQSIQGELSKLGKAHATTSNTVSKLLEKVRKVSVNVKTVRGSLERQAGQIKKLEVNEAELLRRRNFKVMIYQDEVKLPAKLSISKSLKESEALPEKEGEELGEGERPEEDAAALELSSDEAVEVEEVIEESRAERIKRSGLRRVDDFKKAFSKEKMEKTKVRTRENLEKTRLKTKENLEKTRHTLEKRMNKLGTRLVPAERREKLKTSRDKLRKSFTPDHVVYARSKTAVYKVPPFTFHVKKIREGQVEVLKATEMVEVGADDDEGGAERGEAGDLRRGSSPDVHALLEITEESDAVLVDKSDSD

[2] = target: Flag-tagged WT murine SOCS3 (suppressor of cytokine signalling 3) (murine) (UniProt O35718); assay: co-IP; soluble extracts of co-transfected HEK293 cells; IP with anti-Flag M2-agarose beads overnight at 4 °C; co-IP buffer 50 mM HEPES pH 7.4, 120 mM NaCl, 5 mM EDTA, 10% glycerol, 1% Triton X-100; immunoblot; in one panel cells treated with or without sodium orthovanadate (1 mM) and H2O2 (0.2 mM)
[3] = target: Full-length murine WT SOCS3 GFP fusion protein (murine) (UniProt O35718); assay: co-IP; soluble extracts of co-transfected HEK293 cells; IP with anti-GFP antibody and protein G-Sepharose beads; immunoblot for myc-tagged cavin-1
[4] = target: SOCS3 SOCS box domain-only (amino acids 177-225) GFP fusion protein (murine) (UniProt O35718); assay: as above
[5] = target: ΔSH2 SOCS3 (amino acids 46-142) GFP fusion protein (murine) (UniProt O35718); assay: as above
[6] = target: HA-SOCS3 (UniProt O35718); assay: co-IP; Flag-cavin-1 and HA-SOCS3 (Supplementary Fig. 3); which protein was precipitated is not given
[7] = target: T2, Grap2(SOCS3-PEST) chimera (murine) (UniProt O89100+O35718); assay: co-IP; soluble extracts of co-transfected HEK293 cells; IP with anti-Flag M2-agarose beads overnight at 4 °C; co-IP buffer 50 mM HEPES pH 7.4, 120 mM NaCl, 5 mM EDTA, 10% glycerol, 1% Triton X-100; immunoblot; in one panel cells treated with or without sodium orthovanadate (1 mM) and H2O2 (0.2 mM)
T2 sequence: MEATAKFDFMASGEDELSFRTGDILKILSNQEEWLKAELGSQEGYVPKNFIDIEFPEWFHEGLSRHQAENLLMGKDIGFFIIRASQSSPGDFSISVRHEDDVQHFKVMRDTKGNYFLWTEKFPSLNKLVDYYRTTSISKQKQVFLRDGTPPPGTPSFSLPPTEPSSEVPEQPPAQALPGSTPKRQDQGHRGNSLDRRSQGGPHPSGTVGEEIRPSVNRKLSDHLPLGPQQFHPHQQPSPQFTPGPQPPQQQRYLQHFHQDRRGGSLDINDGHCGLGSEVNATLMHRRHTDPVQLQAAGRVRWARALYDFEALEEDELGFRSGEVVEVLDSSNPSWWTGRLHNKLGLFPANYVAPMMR

[8] = target: R71K-mutated Flag-SOCS3 (murine) (UniProt O35718); assay: as above
[9] = target: T3, murine CIS (cytokine-inducible SH2-containing protein) (murine) (UniProt Q62225); assay: as above
T3 sequence: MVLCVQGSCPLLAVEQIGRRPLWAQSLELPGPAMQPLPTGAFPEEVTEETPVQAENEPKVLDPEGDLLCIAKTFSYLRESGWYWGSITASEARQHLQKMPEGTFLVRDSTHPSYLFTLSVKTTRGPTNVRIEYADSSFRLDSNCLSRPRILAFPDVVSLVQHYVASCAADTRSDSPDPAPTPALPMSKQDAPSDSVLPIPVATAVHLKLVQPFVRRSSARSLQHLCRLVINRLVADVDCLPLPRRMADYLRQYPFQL

[10] = target: T4, murine Grap2 (murine) (UniProt O89100); assay: as above
T4 sequence: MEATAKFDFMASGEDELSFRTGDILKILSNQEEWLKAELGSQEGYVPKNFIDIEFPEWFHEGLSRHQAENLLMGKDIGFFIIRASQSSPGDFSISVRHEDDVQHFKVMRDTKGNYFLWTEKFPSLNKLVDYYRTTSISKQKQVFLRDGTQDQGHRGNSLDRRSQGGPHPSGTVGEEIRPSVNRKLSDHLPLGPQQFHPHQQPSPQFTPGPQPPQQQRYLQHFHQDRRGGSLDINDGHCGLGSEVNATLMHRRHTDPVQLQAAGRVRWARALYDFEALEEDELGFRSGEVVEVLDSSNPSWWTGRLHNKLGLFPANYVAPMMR

[11] = target: ΔPEST Flag-SOCS3 (PEST motif Pro129-Arg163 replaced with (Gly-Ser)x4) (murine) (UniProt O35718); assay: as above

binding [1]: binds
Molecule: endogenous SOCS3 of AS-M.5 human angiosarcoma-derived endothelial cells (from UniProt O14543 1-225)

binding [2]: binds
B1: Myc-tagged murine cavin-1 truncation mutant C2 (amino acids 1-167) (domain or fragment, UniProt O54724 1-167)
chain: MEDVTLHIVERPYSGFPDASSEGPEPTQGEARATEEPSGTGSDELIKSDQVNGVLVLSLLDKIIGAVDQIQLTQAQLEERQAEMEGAVQSIQGELSKLGKAHATTSNTVSKLLEKVRKVSVNVKTVRGSLERQAGQIKKLEVNEAELLRRRNFKVMIYQDEVKLPAK

binding [2]: binds
B2: Myc-tagged murine cavin-1 truncation mutant N2 (amino acids 168-392) (domain or fragment, UniProt O54724 168-392)
chain: LSVSKSLKESEALPEKEGDELGEGERPEDDTAAIELSSDEAVEVEEVIEESRAERIKRSGLRRVDDFKKAFSKEKMEKTKVRTRENLEKTRLKTKENLEKTRHTLEKRMNKLGTRLVPVERREKLKTSRDKLRKSFTPDHVVYARSKTAVYKVPPFTFHVKKIREGEVEVLKATEMVEVGPEDDEVGAERGEATDLLRGSSPDVHTLLEITEESDAVLVDKSDSD

binding [2]: binds
B3: Myc-tagged murine cavin-1 truncation mutant C3 (amino acids 1-192) (domain or fragment, UniProt O54724 1-192)
chain: MEDVTLHIVERPYSGFPDASSEGPEPTQGEARATEEPSGTGSDELIKSDQVNGVLVLSLLDKIIGAVDQIQLTQAQLEERQAEMEGAVQSIQGELSKLGKAHATTSNTVSKLLEKVRKVSVNVKTVRGSLERQAGQIKKLEVNEAELLRRRNFKVMIYQDEVKLPAKLSVSKSLKESEALPEKEGDELGEGE

binding [2]: binds
B4: Myc-tagged murine cavin-1 truncation mutant C4 (amino acids 1-249) (domain or fragment, UniProt O54724 1-249)
chain: MEDVTLHIVERPYSGFPDASSEGPEPTQGEARATEEPSGTGSDELIKSDQVNGVLVLSLLDKIIGAVDQIQLTQAQLEERQAEMEGAVQSIQGELSKLGKAHATTSNTVSKLLEKVRKVSVNVKTVRGSLERQAGQIKKLEVNEAELLRRRNFKVMIYQDEVKLPAKLSVSKSLKESEALPEKEGDELGEGERPEDDTAAIELSSDEAVEVEEVIEESRAERIKRSGLRRVDDFKKAFSKEKMEKTKVR

binding [2]: binds
B5: Myc-tagged murine cavin-1 truncation mutant N3 (amino acids 193-392) (domain or fragment, UniProt O54724 193-392)
chain: RPEDDTAAIELSSDEAVEVEEVIEESRAERIKRSGLRRVDDFKKAFSKEKMEKTKVRTRENLEKTRLKTKENLEKTRHTLEKRMNKLGTRLVPVERREKLKTSRDKLRKSFTPDHVVYARSKTAVYKVPPFTFHVKKIREGEVEVLKATEMVEVGPEDDEVGAERGEATDLLRGSSPDVHTLLEITEESDAVLVDKSDSD

binding [3]: binds | binding [4]: no binding | binding [5]: binds | binding [2]: binds
B6: Myc-tagged WT murine cavin-1 (protein, UniProt O54724 1-392)
chain: MEDVTLHIVERPYSGFPDASSEGPEPTQGEARATEEPSGTGSDELIKSDQVNGVLVLSLLDKIIGAVDQIQLTQAQLEERQAEMEGAVQSIQGELSKLGKAHATTSNTVSKLLEKVRKVSVNVKTVRGSLERQAGQIKKLEVNEAELLRRRNFKVMIYQDEVKLPAKLSVSKSLKESEALPEKEGDELGEGERPEDDTAAIELSSDEAVEVEEVIEESRAERIKRSGLRRVDDFKKAFSKEKMEKTKVRTRENLEKTRLKTKENLEKTRHTLEKRMNKLGTRLVPVERREKLKTSRDKLRKSFTPDHVVYARSKTAVYKVPPFTFHVKKIREGEVEVLKATEMVEVGPEDDEVGAERGEATDLLRGSSPDVHTLLEITEESDAVLVDKSDSD

binding [6]: binds
B7: Flag-cavin-1 (protein, UniProt O54724 1-392)
chain: B6 chain

binding [2]: binds | binding [7]: binds weakly | binding [8]: binds | binding [9]: binds | binding [10]: no binding | binding [11]: binds weakly
B8: N-terminally GFP-tagged murine cavin-1 (protein, UniProt O54724 1-392)
chain: B6 chain

binding [2]: binds
B9: Myc-tagged murine cavin-1 truncation mutant N1 (amino acids 74-392) (domain or fragment, UniProt O54724 74-392)
chain: QAQLEERQAEMEGAVQSIQGELSKLGKAHATTSNTVSKLLEKVRKVSVNVKTVRGSLERQAGQIKKLEVNEAELLRRRNFKVMIYQDEVKLPAKLSVSKSLKESEALPEKEGDELGEGERPEDDTAAIELSSDEAVEVEEVIEESRAERIKRSGLRRVDDFKKAFSKEKMEKTKVRTRENLEKTRLKTKENLEKTRHTLEKRMNKLGTRLVPVERREKLKTSRDKLRKSFTPDHVVYARSKTAVYKVPPFTFHVKKIREGEVEVLKATEMVEVGPEDDEVGAERGEATDLLRGSSPDVHTLLEITEESDAVLVDKSDSD

binding [2]: binds
B10: Myc-tagged murine cavin-1 truncation mutant N4 (amino acids 250-392) (domain or fragment, UniProt O54724 250-392)
chain: TRENLEKTRLKTKENLEKTRHTLEKRMNKLGTRLVPVERREKLKTSRDKLRKSFTPDHVVYARSKTAVYKVPPFTFHVKKIREGEVEVLKATEMVEVGPEDDEVGAERGEATDLLRGSSPDVHTLLEITEESDAVLVDKSDSD
